Here are results for one molecule from US20250026816A1, “Antibodies for Use as Therapeutics Against Bacterial Infections” (priority 2021, published 2025).

For assay [1], the target named is T1, Oxa-23 (Acinetobacter baumannii).
T1 construct: endogenous in cells; host or cells: OMVs of GC2 A. baumannii clinical strains
In words: Phage expression library screen (serological expression cloning) for antigen identification. It counts as binding. The conditions noted are these: phage expression library of genomic DNA from strains BAL 084 and BAL 276.

The target is the same in assay [2]. The experiment in a line: Specific binding to Oxa-23 on OMVs (summary statement). The conditions noted are these: on outer membrane vesicles (OMVs) of Acinetobacter baumannii bacteria.

B1: 1349 (antibody)
heavy: QITLKESGPTLVKPTQTLTLTCTFSGFSLSTSGVGVGWIRQPPGKALEWLALIYWDDDKRYSPSLKSRLTITKDTSKNQVVLTMTNMDPVDTATYYCAHSYYYDSSDSYYFDYWGQGTLVTVSS[human IgG1 constant region cut from this listing]
light: DIQLTQSPSFLSASVGDRVTITCWASQGISSRLAWYQQKPGKAPKLLIYAASTLQSGVPSRFSGSGSGTEFTLTISSLQPEDFGNYYCQQFNTYPFTFGPGTKVDIKRTVAAPSVFIFPPSDEQLKSGTASVVCLLNNFYPREAKVQWKVDNALQSGNSQESVTEQDSKDSTYSLSSTLTLSKADYEKHKVYACEVTHQGLSSPVTKSFNRGEC
For the molecule B1, in assay [1], the “antigen bound, elucidated by sequencing the binding phage” value is “bound Oxa-23”. The “specific binding to Oxa-23” value in assay [2] is listed as “specifically bind to Oxa-23”.
